PubChem BioAssay AID1460 (National Center for Advancing Translational Sciences (NCATS), 2008)
Several values for one entry are separate records, joined by “and”; a condition that tells them apart may be missing. Identical values can stand only once. Among all 270,000 compounds or so, about 5,800 (2.1%) were called active. Inconclusive results, whose numbers are uncertain, are shown with a selection of clear calls. Calls come from the whole dose curve; as a rule, active = well fitted inhibition curve with a large enough effect; inconclusive = small, poorly fitted or top-dose-only effect; inactive = flat fitted curve, though single readings scatter. A potency beside an inconclusive call is a rough fit, not a confirmed value.

target: Microtubule-associated protein tau (Homo sapiens) (UniProt P10636); assay: qHTS for Inhibitors of Tau Fibril Formation, Thioflavin T Binding; settings: recombinant tau K18 P301L, heparin-induced fibrillization, ThT fluorescence; series mostly up to 57.4 µM; activity, negative = inhibition: at the top concentration; note: nearly all actives have a fitted effect of over 55% in size
How it was run: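 ThT emission at 510 nm, taken 1 hr after adding 30 uM dye, quantifies aggregates formed when 20 uM heparin acts on human tau K18 P301L for 6 hr at 37 C.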
% is set by controls: 0 for no effect and ±100 for the full control effect; potency is the fitted concentration of half-maximal effect; tags give direction and shape of the fitted curve.

Sequence of UniProt P10636 (P10636 whole entry, looked up): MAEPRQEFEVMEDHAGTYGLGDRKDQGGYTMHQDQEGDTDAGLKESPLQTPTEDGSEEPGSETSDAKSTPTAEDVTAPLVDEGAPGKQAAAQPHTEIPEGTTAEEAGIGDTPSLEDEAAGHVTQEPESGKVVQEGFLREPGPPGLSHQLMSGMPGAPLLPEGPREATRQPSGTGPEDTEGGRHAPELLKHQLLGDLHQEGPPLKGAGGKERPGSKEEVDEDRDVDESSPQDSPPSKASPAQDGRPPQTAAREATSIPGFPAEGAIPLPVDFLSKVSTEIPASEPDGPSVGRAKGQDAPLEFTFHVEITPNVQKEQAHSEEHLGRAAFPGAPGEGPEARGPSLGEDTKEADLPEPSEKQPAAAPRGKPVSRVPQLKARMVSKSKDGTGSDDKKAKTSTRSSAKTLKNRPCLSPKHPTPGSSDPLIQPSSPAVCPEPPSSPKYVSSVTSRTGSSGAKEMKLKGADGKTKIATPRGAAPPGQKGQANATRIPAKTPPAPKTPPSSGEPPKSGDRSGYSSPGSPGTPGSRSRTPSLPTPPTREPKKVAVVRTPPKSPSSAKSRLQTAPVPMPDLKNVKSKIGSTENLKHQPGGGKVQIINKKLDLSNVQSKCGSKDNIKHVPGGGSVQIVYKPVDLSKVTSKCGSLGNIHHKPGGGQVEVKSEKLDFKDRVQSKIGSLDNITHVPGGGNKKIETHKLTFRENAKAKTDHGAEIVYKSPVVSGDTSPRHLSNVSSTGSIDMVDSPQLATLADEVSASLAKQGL

Row | SMILES | Potency | activity, negative = inhibition
1 | Cc1cc(/C=C2/NC(=O)NC2=O)c(C)n1-c1ccc(N2CCOCC2)cc1 | inconclusive: 28.2 µM [inhibitor, single point] | 
2 | O=C(CSc1ccc(-c2ccc(F)cc2)nn1)N1CCN(c2ccccc2)CC1 | inconclusive: 3.16 µM [inhibitor, partial curve] | 
3 | Cc1c(/C=N\NC(=O)c2ccc([N+](=O)[O-])cc2)cnn1C | inconclusive: 7.08 µM [inhibitor, partial curve, poor fit] | 
4 | Cc1c(C(=O)N/N=C/c2ccccc2)[nH]c2ccc(Cl)cc12 | inconclusive: 0.501 µM [inhibitor, full curve, poor fit] | 
5 | Cc1ccc(CN2CCN(/N=C/c3cccn3C)CC2)c(C)c1 | inconclusive: 17.8 µM [inhibitor, single point] | 
6 | COc1ccccc1N1CCN(C(=O)COc2ccc(S(=O)(=O)NC(C)(C)C)cc2)CC1 |  | inactive: -9.93%
7 | O=C(c1ccco1)N1CCN(c2ncnc3c2oc2ccccc23)CC1 | inconclusive: 28.2 µM [inhibitor, partial curve] | 
8 | O=C1Nc2ccccc2/C1=N/c1sc2c(c1C(=O)NCCc1ccccc1)CCCC2 | inconclusive: 11.2 µM [inhibitor, partial curve] | 
9 | Cc1ccc(CNC(=O)Cn2ccn(-c3cccc(Cl)c3)c(=O)c2=O)cc1 |  | inactive: -2.57%
10 | Cc1nc2c(C(=O)NCCc3ccccc3Cl)c[nH]n2c(=O)c1Cl | inconclusive: 39.8 µM [inhibitor, single point] | 
11 | CCOC(=O)N/N=C/c1c(C)nn(-c2ccccc2Cl)c1Cl |  | inactive: -4.89%
12 | Cc1ccc2c(CC(=O)N(Cc3ccc(N(C)C)cc3)Cc3ccco3)coc2c1C | inconclusive: 2.24 µM [inhibitor, full curve] | 
13 | Cc1nn(CCC(=O)NNC(=S)Nc2ccc([N+](=O)[O-])cc2)c(C)c1[N+](=O)[O-] | inconclusive: 14.1 µM [inhibitor, partial curve, poor fit] | 
14 | CC(C)CNc1cc(Cl)c(S(=O)(=O)NCC(C)C)cc1C(=O)O |  | inactive: -6.21%
15 | COc1cc(/C=C/C(=O)N2C(=O)c3cccc(N)c3C2=O)cc(OC)c1OC | inconclusive: 10 µM [inhibitor, partial curve] | 
16 | O=[N+]([O-])C(=C1Nc2ccccc2N1)/C(Cl)=C(/Cl)Br | inconclusive: 15.8 µM [inhibitor, partial curve] | 
17 | N/C(Cc1cccc2ccccc12)=N\OC(=O)Cc1cccs1 |  | inactive: 12.6%
18 | COc1ccc(N2CCN(C(=O)CSc3ncccc3-c3nc4ccccc4[nH]3)CC2)cc1 | inconclusive: 7.08 µM [inhibitor, partial curve] | 
19 | COc1ccccc1CN1C[C@@H]2C[C@@H](c3cccc(O)c3)N3CCC[C@@]23C1=O |  | inactive: -4.38%
20 | COC(=O)[C@@]1(Cc2ccc(OC)cc2)[C@H]2c3cc(C(=O)N(C)C)n(Cc4ccc(C)o4)c3C[C@H]2CN1C(=O)c1ccccc1 | inconclusive: 39.8 µM [inhibitor, single point] | 
21 | Cc1nn(-c2ccccc2)c(Cl)c1/C=C/C(=O)c1ccc(O)cc1 | inconclusive: 4.47 µM [inhibitor, partial curve] | 

Row | SMILES | Potency | activity, negative = inhibition
22 | COC(=O)CSc1nnc(-c2sc3ccccc3c2Cl)o1 | inconclusive: 3.55 µM [inhibitor, full curve] | 
23 | COc1ccc(-c2ccc(-c3noc(-c4cccs4)n3)c(OC)n2)cc1 | inconclusive: 3.98 µM [inhibitor, full curve] | 
24 | c1ccc2c(c1)[nH]c1c3ccccc3sc21 | inconclusive: 7.94 µM [inhibitor, partial curve] | 
25 | NS(=O)(=O)c1ccc(N/N=C/c2ccc(O)cc2O)c([N+](=O)[O-])c1 | active: 2.24 µM | 
26 | CCc1ccc(OCC(=O)N(Cc2ccc(C(C)C)cc2)C2CCS(=O)(=O)C2)cc1 (configuration not stated) | inconclusive: 25.1 µM [inhibitor, single point] | 
27 | COC(=O)C1=C(C)N(CCc2cc(OC)c(OC)c(OC)c2)C(=O)N[C@H]1c1ccc(Br)cc1 | inconclusive: 28.2 µM [inhibitor, single point] | 
28 | Cc1cc(C)n(-c2nnc(NCc3ccc(Cl)cc3)nn2)n1 | inconclusive: 25.1 µM [inhibitor, partial curve] | 
29 | Cc1ccc(C)c(CS(=O)(=O)c2cn(CC(=O)N3CCCCC3)c3ccccc23)c1 | inconclusive: 14.1 µM [inhibitor, partial curve, poor fit] | 
30 | COc1ccc(OCC(=O)N/N=C(\C)CC(=O)Nc2ccc(OC)cc2[N+](=O)[O-])cc1 | inconclusive: 14.1 µM [inhibitor, partial curve] | 
31 | CCOc1cc(/C=C(\C#N)C(=O)NCc2cccnc2)ccc1O | inconclusive: 35.5 µM [inhibitor, single point] | 
32 | Oc1ccc(N2CCN(c3ncnc4sc5c(c34)CCC5)CC2)cc1 | inconclusive: 10 µM [inhibitor, partial curve] | 
33 | FC(F)(F)c1cccc(Sc2cc(C(F)(F)F)nc(-c3ccccn3)n2)c1 | inconclusive: 11.2 µM [inhibitor, partial curve] | 
34 | CN1C(=O)c2cccc(NCCCCCCN3C(=O)c4ccccc4C3=O)c2C1=O | inconclusive: 3.55 µM [inhibitor, partial curve] | 
35 | COc1cc(-c2nnc(COC(=O)CSc3cc(C)c4ccccc4n3)o2)cc(OC)c1OC | inconclusive: 44.7 µM [inhibitor, single point] | 
36 | O=C(NC(=S)NNC(=O)c1ccc(Cl)cc1Cl)c1cccnc1 | inconclusive: 20 µM [inhibitor, single point] | 
37 | O=C(COc1ccccc1Cl)NC(=S)N1CCc2ccccc21 | inconclusive: 35.5 µM [inhibitor, single point] | 
38 | CCOc1ccc(C(=O)/C=C/Nc2ccc(S(=O)(=O)N=C(N)N)cc2)cc1 | inconclusive: 20 µM [inhibitor, partial curve] | 
39 | S=C(Nc1ccccn1)c1ccccn1 | inconclusive: 28.2 µM [inhibitor, partial curve] and inconclusive: 17.8 µM [inhibitor, partial curve] | 
40 | Cc1ccc2c(C)nc(Nc3nc(CSc4nnnn4-c4ccccc4)cc(=O)[nH]3)nc2c1 | inconclusive: 3.16 µM [inhibitor, full curve] | 
41 | Nc1cc(N2CCCC2)ccc1[N+](=O)[O-] |  | inactive: -8.55%
42 | CCCN(CCC)C(=O)CC(c1ccc(F)cc1)c1ccco1 (configuration not stated) | inconclusive: 35.5 µM [inhibitor, single point] | 

Row | SMILES | Potency | activity, negative = inhibition
43 | C/C(CCC(=O)O)=N/Nc1ccc([N+](=O)[O-])cc1[N+](=O)[O-] | inconclusive: 31.6 µM [inhibitor, single point] | 
44 | Cc1cc2ccccn2c1C(=O)c1ccc(Cl)cc1 | inconclusive: 15.8 µM [inhibitor, partial curve, poor fit] | 
45 | COc1cccc(NC(=O)Cn2c(=O)n(Cc3ccc4c(c3)OCO4)c(=O)c3oc4ccccc4c32)c1 | inconclusive: 6.31 µM [activator, partial curve] | 
46 | CSc1nc2[nH]c3c(c2c2nnnn12)CCCC3 | inconclusive: 14.1 µM [inhibitor, single point] | 
47 | CSC1=N/C(=C\c2ccccc2)C(=O)N1C | inconclusive: 25.1 µM [inhibitor, single point] | 
48 | CCCNCC1C(Oc2ccc(Cl)cc2Cl)C(=O)N1c1cccc(C)c1C (configuration not stated) | inconclusive: 11.2 µM [inhibitor, single point] | 
49 | NC(=O)c1c(NC(=O)C2COc3ccccc3O2)sc2c1CCN(Cc1ccccc1)C2 (configuration not stated) | inconclusive: 39.8 µM [activator, single point] | 
50 | CC(=O)Cn1ncc(Br)c(Br)c1=O | inconclusive: 20 µM [inhibitor, partial curve] | 
51 | C=CCn1c(O)c(N=NC(=S)Nc2ccc(OC)cc2)c2ccccc21 | inconclusive: 3.98 µM [inhibitor, partial curve] | 
52 | Cc1noc(NS(=O)(=O)c2ccc(NC(=O)c3cc(-c4ccccc4Cl)nc4ccccc34)cc2)c1C | inconclusive: 31.6 µM [inhibitor, single point] | 
53 | O=C(Nc1ccccc1)c1cccc(N2CCCS2(=O)=O)c1 |  | inactive: -4.93%
54 | COc1cc(C(=O)OCC(=O)c2c[nH]c3ccccc23)ccc1OCC(=O)N1CCOCC1 | inconclusive: 22.4 µM [inhibitor, partial curve] | 
55 | CC(C)(C)C(=O)NNc1nc(-c2ccccc2)c2cc(Br)ccc2n1 | inconclusive: 11.2 µM [inhibitor, partial curve, poor fit] | 
56 | S=c1[nH]nc(-c2ccco2)n1/N=C/c1ccccc1 | inconclusive: 8.91 µM [inhibitor, partial curve] | 
57 | COc1cccc(C(=O)Nc2cccc(-c3nnc(-c4ccco4)o3)c2)c1 | inconclusive: 7.08 µM [inhibitor, partial curve] | 
58 | CCOc1ccc(NC(=O)CSc2ccc(-c3ccccn3)nn2)cc1 | inconclusive: 7.94 µM [inhibitor, partial curve, poor fit] | 
59 | COc1ccc(OC)c(-c2nnc(SCC(=O)N3CCCc4ccccc43)o2)c1 | inconclusive: 39.8 µM [inhibitor, single point] | 
60 | Nc1nnc(CC(=O)N/N=C/c2ccc(-c3ccccc3Cl)o2)s1 | inconclusive: 12.6 µM [inhibitor, partial curve] | 
61 | COc1cc(NC(=O)c2noc3c2CC(C)CC3)c(OC)cc1Cl (configuration not stated) |  | inactive: -13.8%
62 | COc1cccc(Nc2ncccc2C(=O)NCc2ccccc2)c1 | inconclusive: 17.8 µM [inhibitor, single point] | 
